Article PMC5700166
The entries are a selection whose mix differs from that of the whole data set. For part of these data: The list includes weakly bound sequences.

How the values were obtained:
Assay in all cases: protein-binding microarray (PBM)
Conditions in all cases: PBM: ~300 nM protein, 6 mM HEPES pH 7.8, 80 mM KCl, 0.5 mM EDTA, 0.5 mM EGTA, 6% glycerol, 35 ng/ul poly-dIdC, 1% milk, 1 h, room temperature; Ap Aiptasia and Nv Nematostella (sea anemones) / Co Capsaspora / Aq Amphimedon (sponge) / Dm Drosophila / Hu human; RHD is the Rel homology domain; high values mean tight binding; most listed sequences are background and not binding sites; double strand, one strand shown
GST-Ap-NF-kB RHD = target: T1, GST-Ap-NF-kB RHD (UniProt A0A913YAJ5)
T1 sequence: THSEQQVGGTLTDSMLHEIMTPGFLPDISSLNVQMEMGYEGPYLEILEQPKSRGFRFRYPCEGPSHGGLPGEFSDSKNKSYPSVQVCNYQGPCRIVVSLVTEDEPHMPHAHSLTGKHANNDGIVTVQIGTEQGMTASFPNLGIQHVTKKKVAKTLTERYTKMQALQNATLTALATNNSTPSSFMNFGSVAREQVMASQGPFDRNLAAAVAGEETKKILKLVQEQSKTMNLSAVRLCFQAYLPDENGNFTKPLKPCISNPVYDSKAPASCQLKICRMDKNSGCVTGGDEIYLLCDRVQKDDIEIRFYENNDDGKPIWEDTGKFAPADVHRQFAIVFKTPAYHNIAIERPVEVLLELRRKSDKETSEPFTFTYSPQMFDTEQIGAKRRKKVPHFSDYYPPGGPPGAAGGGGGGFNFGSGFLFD

GST-Co-NF-kB = target: T2, GST-Co-NF-kB (UniProt F1ARL5)
T2 sequence: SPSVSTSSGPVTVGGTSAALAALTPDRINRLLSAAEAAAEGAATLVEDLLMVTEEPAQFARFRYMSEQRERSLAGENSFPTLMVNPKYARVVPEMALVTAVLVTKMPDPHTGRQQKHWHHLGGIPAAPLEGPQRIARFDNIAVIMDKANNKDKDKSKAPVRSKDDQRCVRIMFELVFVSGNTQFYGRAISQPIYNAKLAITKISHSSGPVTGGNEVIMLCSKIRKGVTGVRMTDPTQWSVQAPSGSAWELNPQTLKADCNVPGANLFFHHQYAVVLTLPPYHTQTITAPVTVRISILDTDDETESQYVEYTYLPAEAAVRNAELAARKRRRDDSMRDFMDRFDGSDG

GST-Aq-NF-kB = target: T3, GST-Aq-NF-kB (UniProt A9Y5G7)
T3 sequence: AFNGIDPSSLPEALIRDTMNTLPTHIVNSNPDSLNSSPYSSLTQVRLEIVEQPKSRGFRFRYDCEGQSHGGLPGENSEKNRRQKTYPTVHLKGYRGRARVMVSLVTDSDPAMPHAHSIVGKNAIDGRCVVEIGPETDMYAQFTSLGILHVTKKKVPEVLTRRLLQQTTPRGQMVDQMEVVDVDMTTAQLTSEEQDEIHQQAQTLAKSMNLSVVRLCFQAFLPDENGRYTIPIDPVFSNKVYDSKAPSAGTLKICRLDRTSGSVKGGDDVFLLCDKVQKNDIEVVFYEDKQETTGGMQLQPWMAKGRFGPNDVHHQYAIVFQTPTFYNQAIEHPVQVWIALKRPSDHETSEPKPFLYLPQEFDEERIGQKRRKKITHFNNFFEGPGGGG

GST-Dm-Relish = target: T4, GST-Dm-Relish (UniProt Q94527)
T4 sequence: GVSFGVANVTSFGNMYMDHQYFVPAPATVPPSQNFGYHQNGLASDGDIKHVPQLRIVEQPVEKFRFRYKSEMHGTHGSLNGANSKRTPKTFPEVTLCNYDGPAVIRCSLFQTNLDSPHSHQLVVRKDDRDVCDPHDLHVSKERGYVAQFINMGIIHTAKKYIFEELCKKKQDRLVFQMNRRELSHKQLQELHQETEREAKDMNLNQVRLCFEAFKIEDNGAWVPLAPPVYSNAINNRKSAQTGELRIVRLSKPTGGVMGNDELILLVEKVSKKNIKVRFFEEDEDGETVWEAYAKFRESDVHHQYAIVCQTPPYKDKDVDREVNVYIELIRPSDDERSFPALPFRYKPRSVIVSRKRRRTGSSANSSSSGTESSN

[1] = target: T5, GST-Nv-NF-kB (Cys allele) (UniProt E5G601)
T5 sequence: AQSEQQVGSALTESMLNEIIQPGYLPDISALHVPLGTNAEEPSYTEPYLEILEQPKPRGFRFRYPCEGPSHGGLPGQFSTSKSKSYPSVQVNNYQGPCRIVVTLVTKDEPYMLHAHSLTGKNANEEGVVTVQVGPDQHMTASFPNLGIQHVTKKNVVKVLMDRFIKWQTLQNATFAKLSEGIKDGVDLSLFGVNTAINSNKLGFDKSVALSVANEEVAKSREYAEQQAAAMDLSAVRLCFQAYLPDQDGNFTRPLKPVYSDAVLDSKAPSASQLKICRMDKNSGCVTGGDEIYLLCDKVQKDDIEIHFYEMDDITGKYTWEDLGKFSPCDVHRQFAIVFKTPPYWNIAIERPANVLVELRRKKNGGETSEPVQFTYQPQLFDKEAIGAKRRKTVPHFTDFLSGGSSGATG

Work on “CCGATTAACATCAGGGAGTCACCTGATGTTAATCGGGTCTTGATTCGCTTGACGCTGCTG” yielded a binding signal (GST-Ap-NF-kB RHD) of 3.25 z-score, a binding signal (GST-Co-NF-kB) of 0.992 z-score and a binding signal (GST-Aq-NF-kB) of 3.63 z-score.

Work on “CCGATTAACATCAGCTTGGGAAATGATGTTAATCGGGTCTTGATTCGCTTGACGCTGCTG” yielded a binding signal (GST-Ap-NF-kB RHD) of 0.921 z-score, a binding signal (GST-Co-NF-kB) of 2.33 z-score and a binding signal (GST-Dm-Relish) of 0.0846 z-score. The binding signal (GST-Aq-NF-kB) was 0.966 z-score.

In the case of “CCGATTAACATCAGGGACTCCCCTGATGTTAATCGGGTCTTGATTCGCTTGACGCTGCTG”, the binding signal (GST-Ap-NF-kB RHD) is reported as 11.3 z-score, the binding signal (GST-Co-NF-kB) is reported as 4.68 z-score and the binding signal (GST-Dm-Relish) is reported as 10.3 z-score. For the same sequence, the binding signal (GST-Aq-NF-kB) was 9.57 z-score.

“CCGATTAACATCAAAATCCCGGGTGATGTTAATCGGGTCTTGATTCGCTTGACGCTGCTG” gave a binding signal (GST-Ap-NF-kB RHD) of 3.32 z-score, a binding signal (GST-Co-NF-kB) of 1.42 z-score and a binding signal (GST-Dm-Relish) of 6.58 z-score. The binding signal (GST-Aq-NF-kB) was 3.23 z-score.

In the case of “CCGATTAACATCAGTTTCCCAAATGATGTTAATCGGGTCTTGATTCGCTTGACGCTGCTG”, the binding signal (GST-Ap-NF-kB RHD) is reported as 0.893 z-score, the binding signal (GST-Co-NF-kB) is reported as 2.19 z-score and the binding signal (GST-Aq-NF-kB) is reported as 1.17 z-score.

“CCGATTAACATCAAGAACCTTCTTGATGTTAATCGGGTCTTGATTCGCTTGACGCTGCTG” was tested, and the binding signal (GST-Ap-NF-kB RHD) was -0.896 z-score, the binding signal (GST-Co-NF-kB) was -0.395 z-score and the binding signal (GST-Dm-Relish) was -0.267 z-score. It also gave a binding signal (GST-Aq-NF-kB) of -0.322 z-score.

For “CCGATTAACATCAGGAAATAACCTGATGTTAATCGGGTCTTGATTCGCTTGACGCTGCTG”, the binding signal (GST-Ap-NF-kB RHD) was 0.652 z-score, the binding signal (GST-Co-NF-kB) was -0.297 z-score and the binding signal (GST-Dm-Relish) was 3.31 z-score. For the same sequence, the binding signal (GST-Aq-NF-kB) was 4.91 z-score.

For “CCGATTAACATCAAGGGGGTTCCTGATGTTAATCGGGTCTTGATTCGCTTGACGCTGCTG”, the binding signal (GST-Ap-NF-kB RHD) was 9.16 z-score, the binding signal (GST-Co-NF-kB) was 1.68 z-score and the binding signal (GST-Dm-Relish) was 10.4 z-score. For the same sequence, the binding signal (GST-Aq-NF-kB) was 7.2 z-score.

For “CCGATTAACATCAGGGGAGGTACTGATGTTAATCGGGTCTTGATTCGCTTGACGCTGCTG”, the binding signal (GST-Ap-NF-kB RHD) was 4.21 z-score, the binding signal (GST-Co-NF-kB) was 3.96 z-score and the binding signal (GST-Aq-NF-kB) was 4.35 z-score.

Sequence “CCGATTAACATCAGGGGAAGCACTGATGTTAATCGGGTCTTGATTCGCTTGACGCTGCTG” has a binding signal (GST-Ap-NF-kB RHD) of 5.88 z-score, a binding signal (GST-Co-NF-kB) of 4.4 z-score and a binding signal (GST-Dm-Relish) of 9.95 z-score. For the same sequence, the binding signal (GST-Aq-NF-kB) was 6.83 z-score.

“CCGATTAACATCAGGTAAATACCTGATGTTAATCGGGTCTTGATTCGCTTGACGCTGCTG” was tested, and the binding signal (GST-Ap-NF-kB RHD) was 0.597 z-score, the binding signal (GST-Co-NF-kB) was -0.675 z-score and the binding signal (GST-Dm-Relish) was 4.77 z-score. For the same sequence, the binding signal (GST-Aq-NF-kB) was 4.2 z-score.

“CCGATTAACATCAAAGGGAATAGTGATGTTAATCGGGTCTTGATTCGCTTGACGCTGCTG” was tested, and the binding signal (GST-Ap-NF-kB RHD) was 2.26 z-score, the binding signal (GST-Dm-Relish) was 0.805 z-score and the binding signal (GST-Aq-NF-kB) was 2.54 z-score.

For “CCGATTAACATCAAGGGGGATTCTGATGTTAATCGGGTCTTGATTCGCTTGACGCTGCTG”, the binding signal [1] was 8.85 z-score and the binding signal (GST-Aq-NF-kB) was 7.13 z-score.

For “CCGATTAACATCAAGAGTTTCCCTGATGTTAATCGGGTCTTGATTCGCTTGACGCTGCTG”, the binding signal [1] was 5.34 z-score and the binding signal (GST-Aq-NF-kB) was 5.12 z-score.

“CCGATTAACATCAAAAATACCCCTGATGTTAATCGGGTCTTGATTCGCTTGACGCTGCTG” showed a binding signal [1] of 8.45 z-score and a binding signal (GST-Aq-NF-kB) of 7.5 z-score.

“CCGATTAACATCAAGTTTACCCCTGATGTTAATCGGGTCTTGATTCGCTTGACGCTGCTG” gave a binding signal [1] of 2.2 z-score, a binding signal (GST-Co-NF-kB) of 6.61 z-score and a binding signal (GST-Aq-NF-kB) of 2.91 z-score.

“CCGATTAACATCAACCCCCCCCATGATGTTAATCGGGTCTTGATTCGCTTGACGCTGCTG” showed a binding signal [1] of 4.32 z-score and a binding signal (GST-Aq-NF-kB) of 4.01 z-score.

Sequence “CCGATTAACATCAGGATTTACCCTGATGTTAATCGGGTCTTGATTCGCTTGACGCTGCTG” has a binding signal [1] of 4.29 z-score and a binding signal (GST-Aq-NF-kB) of 6.67 z-score.

Sequence “CCGATTAACATCAAATATCCCCCTGATGTTAATCGGGTCTTGATTCGCTTGACGCTGCTG” has a binding signal [1] of 8.51 z-score, a binding signal (GST-Co-NF-kB) of 8.39 z-score and a binding signal (GST-Aq-NF-kB) of 6.9 z-score.
